# Measurements: PubChem BioAssay (NCATS)
# Values joined by “and” are separate entries in the source; they are usually repeats but may differ in a detail not shown here. Identical values can stand only once. The inconclusive results got no clear call from the source; some entries with a clear call stand among them for comparison. A potency beside an inconclusive call is a rough fit, not a confirmed value. Active and inactive are the calls of the source. The call rests on the fitted dose curve; in most records, active means well fitted curve in the direction sought with a large enough effect; inconclusive means small, poorly fitted or top-dose-only effect, or another doubt; inactive means no such curve, though single readings can be large; an effect the other way counts as inactive or inconclusive.
# Assay: qHTS of pediatric cancer cell lines to identify multiple opportunities for drug repurposing: Primary screen for LAN-5 cells (AID 1347100)
# Settings: LAN-5 neuroblastoma viability, CellTiter-Glo luminescence, 48 h; series mostly up to 46 µM
# In short: (§1)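 Cells (500-1,000/well) rested 5 h, then received compounds for 48 h; metabolically active cells were measured by CellTiter-Glo luminescence. Final concentrations spanned up to 46 µM (MIPE, 11-point) or 0.59 nM-46 µM (NPC, 8-point) in primary screens, 11-point in follow-ups.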
# Potency means the concentration at half of the fitted maximal effect; tags describe the fitted curve by direction and shape.
row,Compound,Potency
1,CCN(CC)CCNC(=O)c1ccc2nc(-c3ccccc3)c(-c3ccc(CN4CCC(n5c(=O)[nH]c6ccccc65)CC4)cc3)nc2c1,active: 5.9 µM
2,S=P(N1CC1)(N1CC1)N1CC1,"inconclusive: 40.5 µM [cytotoxic, single point] and active: 18.7 µM"
3,CCNC(=O)Nc1ccc(Oc2ncnc(N)c2C=NOC)cc1Cl,"inconclusive: 16.6 µM [cytotoxic, partial curve]"
4,O=C(Nc1cccc2c(=O)cc(-c3nn[nH]n3)oc12)c1ccc(OCCCCc2ccccc2)cc1,"inconclusive: 23.5 µM [cytotoxic, partial curve]"
5,CCN(CC)CCOc1ccc(Nc2ncc3cc(-c4c(Cl)cccc4Cl)c(=O)n(C)c3n2)cc1,active: 1.05 µM
6,CNC(=O)c1c(-c2ccc(F)cc2)oc2cc(N(CCO)S(C)(=O)=O)c(C3CC3)cc12,"inconclusive: 11.8 µM [cytotoxic, partial curve, poor fit]"
7,Cc1cc(OCCCS(C)(=O)=O)cc(C)c1-c1cccc(COc2ccc3c(c2)OC[C@H]3CC(=O)O)c1,"inconclusive: 11.8 µM [cytotoxic, partial curve, poor fit]"
8,Cn1cc(C[C@@H](N)C(=O)O)c2ccccc21,inactive
9,CCN(CC)CCOc1ccc(Cc2ccccc2)cc1,"inconclusive: 6.68 µM [cytotoxic, full curve] and inconclusive: 20.9 µM [cytotoxic, single point]"
10,CC(C)OC(=O)OCOP(=O)(CO[C@H](C)Cn1cnc2c(N)ncnc21)OCOC(=O)OC(C)C,inactive
11,CC1=C(C(=O)Nc2cc3cn[nH]c3cc2F)C(c2ccc(C(F)(F)F)cc2)CC(=O)N1 (centres undefined),"inconclusive: 33.2 µM [cytotoxic, single point]"
12,CCOc1ccccc1OCCNC(C)Cc1ccc(OC)c(S(N)(=O)=O)c1 (centres undefined),inactive
13,Nc1ncnc2c1c(-c1cccc(OCc3ccccc3)c1)cn2C1CC(CN2CCC2)C1 (centres undefined),active: 4.69 µM

# Assay: qHTS of pediatric cancer cell lines to identify multiple opportunities for drug repurposing: Primary screen for BT-12 cells (AID 1347101); further: nearly all actives have a fitted effect of over 25% in size
# Settings: BT-12 viability, CellTiter-Glo luminescence, 48 h; series mostly up to 57.3 µM
# In short: as §1
row,Compound,Potency
1,COc1ccc(CCN(C)CCCOc2ccc(S(=O)(=O)c3[nH]c4ccccc4c3C(C)C)cc2)cc1OC,"inconclusive: 19.3 µM [cytotoxic, partial curve]"
2,CC(C)(N)C(=O)N[C@H](COCc1ccccc1)C(=O)N1CCC2(CC1)CN(S(C)(=O)=O)c1ccccc12,"inconclusive: 24.3 µM [cytotoxic, partial curve]"
3,Cn1cc(-c2ccc3nnc(Sc4ccc5ncccc5c4)n3n2)cn1,inactive
4,CCN(CC)CCNC(=O)c1ccc2nc(-c3ccccc3)c(-c3ccc(CN4CCC(n5c(=O)[nH]c6ccccc65)CC4)cc3)nc2c1,"inconclusive: 34.3 µM [cytotoxic, single point]"
5,COc1ccccc1-c1cccc(-c2c(O)c3cc(C#N)c(Cl)cc3[nH]c2=O)c1,"inconclusive: 39.5 µM [cytotoxic, partial curve, poor fit]"
6,O=C(Nc1cccc2c(=O)cc(-c3nn[nH]n3)oc12)c1ccc(OCCCCc2ccccc2)cc1,"inconclusive: 43.2 µM [cytotoxic, partial curve, poor fit]"
7,CNC(=O)c1c(-c2ccc(F)cc2)oc2cc(N(CCO)S(C)(=O)=O)c(C3CC3)cc12,"inconclusive: 24.3 µM [cytotoxic, partial curve, poor fit]"
8,Cc1cc(OCCCS(C)(=O)=O)cc(C)c1-c1cccc(COc2ccc3c(c2)OC[C@H]3CC(=O)O)c1,"inconclusive: 27.3 µM [cytotoxic, single point]"
9,N=C(N)c1ccc2cc(OC(=O)c3ccc(N=C(N)N)cc3)ccc2c1,"inconclusive: 24.3 µM [cytotoxic, partial curve, poor fit] and inconclusive: 17.4 µM [cytotoxic, partial curve]"
10,CCOc1cc2ncc(C#N)c(Nc3ccc(F)c(Cl)c3)c2cc1NC(=O)C=CCN(C)C,active: 7.69 µM
11,CS(=O)(=O)Nc1ccc([N+](=O)[O-])cc1Oc1ccccc1,"inconclusive: 21.7 µM [cytotoxic, partial curve]"
12,Oc1ccc([C@@H]2Oc3ccc(O)cc3[C@@H]3CCC[C@@H]32)cc1,active: 24.3 µM
13,C=CC(=O)Nc1cccc(Oc2nc(Nc3ccc(N4CCN(C)CC4)cc3OC)ncc2Cl)c1,active: 34.3 µM
14,CC(C)OC(=O)OCOP(=O)(CO[C@H](C)Cn1cnc2c(N)ncnc21)OCOC(=O)OC(C)C,"inconclusive: 19.3 µM [cytotoxic, partial curve, poor fit] and inconclusive: 19.5 µM [cytotoxic, partial curve, poor fit]"
15,COc1cc(Nc2ncc3c(n2)-c2ccc(Cl)cc2C(c2c(F)cccc2OC)=NC3)ccc1C(=O)O,"inconclusive: 0.153 µM [cytotoxic, full curve]"
16,C[C@@H]1CC=CC=CC=CC=C[C@@H](O[C@@H]2O[C@H](C)[C@@H](O)[C@H](N)[C@H]2O)C[C@@H]2O[C@](O)(C[C@@H](O)C[C@@H]3O[C@@H]3C=CC(=O)O1)C[C@H](O)[C@@H]2C(=O)O,active: 15.3 µM
17,COc1cc2nccc(Oc3ccc(NC(=O)Nc4cc(C)on4)c(Cl)c3)c2cc1OC,"inconclusive: 21.7 µM [cytotoxic, partial curve]"
18,CN(C)CCC=C1c2ccccc2C=Cc2ccccc21,"inconclusive: 15.5 µM [cytotoxic, partial curve] and inconclusive: 17.2 µM [cytotoxic, partial curve]"
19,Nc1cccc(S(=O)(=O)N2CCCN(S(=O)(=O)c3ccc4c(c3)OCCO4)CC2)c1,"inconclusive: 27.3 µM [cytotoxic, partial curve, poor fit]"
20,C[C@]12C=CC(=O)C=C1CC[C@@H]1[C@@H]2[C@@H](O)C[C@@]2(C)[C@@H]1CC[C@]2(O)C(=O)CO,"inconclusive: 19.3 µM [cytotoxic, partial curve]"
21,C[C@H](CCC(=O)O)[C@H]1CC[C@H]2[C@H]3[C@@H](CC[C@]12C)[C@@]1(C)CC[C@@H](O)C[C@H]1C[C@@H]3O,inactive
